Measured values reported in a collection of fitness landscapes (doi:10.1038/s41467-024-54723-y).
The full ranking holds about 18,000 sequences; the median of “TetR repression strength (sort-seq, GFP reporter)” is about 0.23, and the highest 2% start at about 0.68. The list shows a part of the results.

target: TetR (class B, Tn10) (UniProt P04483); assay: TetR repression strength (sort-seq, GFP reporter) (relative to tetO2 = 1); higher = stronger repression; conditions: E. coli
How it was run: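 Repression strength is the top bin index plus one minus the read-weighted mean bin, relative to the unaltered operator's value. A low-copy library in E. coli SIG10-MAX randomized eight operator positions between a constitutive promoter and sfGFP, with TetR expressed constitutively; cells grew 5 h at 37 °C in LB with 50 µg/mL chloramphenicol and 10^6 were FACS-sorted into 13 bins that were each Illumina-sequenced. Three independent transformations were averaged, keeping only members with ≥30 reads in all replicates and CV ≤0.5.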

Chain of UniProt P04483 (P04483 whole entry): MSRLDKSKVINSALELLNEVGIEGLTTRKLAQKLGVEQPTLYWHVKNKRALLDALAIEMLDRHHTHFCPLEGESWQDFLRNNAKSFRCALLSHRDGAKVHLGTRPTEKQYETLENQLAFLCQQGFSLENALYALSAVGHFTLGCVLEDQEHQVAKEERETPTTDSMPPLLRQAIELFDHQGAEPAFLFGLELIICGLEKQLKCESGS

Compared with TCCCCGATAGTTCGGGAGA, TCCCAAGTAGTTGAGGAGA is lower in TetR repression strength: 0.337 for the first, 0.321 for the second.

Compared with TCCCTGTCAGTTGTGGAGA, TCCCGTACAGTGGGCGAGA is higher in TetR repression strength: 0.171 for the first, 0.203 for the second.

Compared with TCCCCGTGAGTGTGCGAGA, TCCCAGATAGTAACCGAGA is higher in TetR repression strength: 0.161 for the first, 0.601 for the second.

Compared with TCCCACGCAGTTGTTGAGA, TCCCTTCAAGTTTACGAGA is higher in TetR repression strength: 0.306 for the first, 0.407 for the second.

Going from TCCCAGACAGTAACCGAGA to TCCCGTCGAGTGGTGGAGA, the TetR repression strength falls from 0.473 to 0.154.

Compared with TCCCACGCAGTAGATGAGA, TCCCATGAAGTCGGAGAGA is higher in TetR repression strength: 0.131 for the first, 0.216 for the second.

Compared with TCCCATTCAGTGTTTGAGA, TCCCCACCAGTCACGGAGA is lower in TetR repression strength: 0.318 for the first, 0.152 for the second.

Going from TCCCATCTAGTATTTGAGA to TCCCAATAAGTATGCGAGA, the TetR repression strength falls from 0.512 to 0.238.

Compared with TCCCGAACAGTGGTAGAGA, TCCCCCTTAGTGAGTGAGA is lower in TetR repression strength: 0.381 for the first, 0.113 for the second.

First: TCCCAGATAGTTAAGGAGA
Second: TCCCACGCAGTGCGGGAGA
The TetR repression strength of the first is lower: 0.222 for the first, 0.225 for the second.

Going from TCCCTAGCAGTTGTAGAGA to TCCCAATCAGTGAAGGAGA, the TetR repression strength rises from 0.509 to 0.671.

Compared with TCCCTCGTAGTCAGGGAGA, TCCCTTCCAGTACATGAGA is lower in TetR repression strength: 0.305 for the first, 0.233 for the second.

Compared with TCCCGTAGAGTCTATGAGA, TCCCCTCCAGTGGCTGAGA is higher in TetR repression strength: 0.141 for the first, 0.161 for the second.

Going from TCCCGTAGAGTAAGCGAGA to TCCCGAGGAGTGGTAGAGA, the TetR repression strength rises from 0.192 to 0.256.

Going from TCCCGGGTAGTAGGCGAGA to TCCCGAACAGTCGGGGAGA, the TetR repression strength falls from 0.304 to 0.0895.

First: TCCCGGCCAGTATTCGAGA
Second: TCCCAAATAGTACGCGAGA
The TetR repression strength of the first is lower: 0.104 for the first, 0.228 for the second.

First: TCCCATACAGTGTTGGAGA
Second: TCCCCTGAAGTTCGGGAGA
The TetR repression strength of the first is higher: 0.408 for the first, 0.272 for the second.

First: TCCCGGGAAGTGGTCGAGA
Second: TCCCATTGAGTTTGAGAGA
The TetR repression strength of the first is higher: 0.281 for the first, 0.213 for the second.

Compared with TCCCGCCGAGTCTCAGAGA, TCCCAGGGAGTGTGAGAGA is higher in TetR repression strength: 0.207 for the first, 0.229 for the second.

First: TCCCTAATAGTCGGAGAGA
Second: TCCCTGTGAGTGTAGGAGA
The TetR repression strength of the first is higher: 0.323 for the first, 0.174 for the second.

Compared with TCCCAGGGAGTCAGTGAGA, TCCCCTACAGTAGCGGAGA is lower in TetR repression strength: 0.319 for the first, 0.171 for the second.

First: TCCCCTCGAGTACGGGAGA
Second: TCCCGCTTAGTCGGGGAGA
The TetR repression strength of the first is lower: 0.0841 for the first, 0.522 for the second.

First: TCCCTATCAGTGCGTGAGA
Second: TCCCCTCGAGTCGCGGAGA
The TetR repression strength of the first is higher: 0.546 for the first, 0.194 for the second.

First: TCCCGAAGAGTGAAGGAGA
Second: TCCCAATCAGTCGCAGAGA
The TetR repression strength of the first is lower: 0.179 for the first, 0.268 for the second.

First: TCCCCCCTAGTATAAGAGA
Second: TCCCCCTAAGTGCGAGAGA
The TetR repression strength of the first is higher: 0.524 for the first, 0.0843 for the second.

Going from TCCCGAACAGTGGCCGAGA to TCCCTACGAGTTTCGGAGA, the TetR repression strength rises from 0.276 to 0.289.

Compared with TCCCAATGAGTTTTGGAGA, TCCCAGGAAGTGGTGGAGA is lower in TetR repression strength: 0.218 for the first, 0.147 for the second.

Compared with TCCCCCAGAGTTAGCGAGA, TCCCATTGAGTTCGGGAGA is higher in TetR repression strength: 0.425 for the first, 0.851 for the second.

First: TCCCATGTAGTGACAGAGA
Second: TCCCTGGCAGTGACAGAGA
The TetR repression strength of the first is higher: 0.541 for the first, 0.515 for the second.

First: TCCCGGGGAGTTTACGAGA
Second: TCCCGTTTAGTGGGTGAGA
The TetR repression strength of the first is lower: 0 for the first, 0.306 for the second.

Going from TCCCAACGAGTAAATGAGA to TCCCGATCAGTAACAGAGA, the TetR repression strength falls from 0.6 to 0.281.

Going from TCCCGCCTAGTGGCCGAGA to TCCCTAGCAGTTTAGGAGA, the TetR repression strength falls from 0.281 to 0.276.

Compared with TCCCGCTAAGTTTCTGAGA, TCCCCCCAAGTTTACGAGA is higher in TetR repression strength: 0.393 for the first, 0.398 for the second.

Compared with TCCCCCACAGTTAAAGAGA, TCCCGAGGAGTCCCTGAGA is higher in TetR repression strength: 0.333 for the first, 0.381 for the second.

Compared with TCCCGTGGAGTAGGAGAGA, TCCCTTTAAGTGGCCGAGA is higher in TetR repression strength: 0.198 for the first, 0.453 for the second.

First: TCCCCTGTAGTGTTAGAGA
Second: TCCCTAGTAGTGTGTGAGA
The TetR repression strength of the first is lower: 0.184 for the first, 0.287 for the second.

Going from TCCCGCACAGTGCCAGAGA to TCCCGTGGAGTAGTTGAGA, the TetR repression strength falls from 0.277 to 0.242.

First: TCCCAGGAAGTAGGTGAGA
Second: TCCCATCTAGTGAGGGAGA
The TetR repression strength of the first is lower: 0.213 for the first, 0.36 for the second.

First: TCCCTAGCAGTCGAAGAGA
Second: TCCCCTGGAGTATGCGAGA
The TetR repression strength of the first is lower: 0.189 for the first, 0.196 for the second.

Compared with TCCCGACCAGTCGTGGAGA, TCCCTCTTAGTTTTTGAGA is higher in TetR repression strength: 0.158 for the first, 0.207 for the second.

First: TCCCTGCCAGTATTAGAGA
Second: TCCCACGGAGTCACCGAGA
The TetR repression strength of the first is higher: 0.343 for the first, 0.205 for the second.

Compared with TCCCAACTAGTCGTTGAGA, TCCCAGTTAGTAGGAGAGA is lower in TetR repression strength: 0.236 for the first, 0.229 for the second.

First: TCCCTTTTAGTCGGAGAGA
Second: TCCCGGAGAGTGGTGGAGA
The TetR repression strength of the first is higher: 0.598 for the first, 0.29 for the second.

Compared with TCCCCCGAAGTGTCGGAGA, TCCCGAAGAGTAACTGAGA is higher in TetR repression strength: 0.21 for the first, 0.279 for the second.

Compared with TCCCTTGAAGTTGTTGAGA, TCCCGACGAGTTTCGGAGA is lower in TetR repression strength: 0.202 for the first, 0.0777 for the second.

First: TCCCCCCAAGTGCGAGAGA
Second: TCCCAGCTAGTTTTGGAGA
The TetR repression strength of the first is lower: 0.194 for the first, 0.212 for the second.

Compared with TCCCGTTAAGTGGCGGAGA, TCCCTGCGAGTGTGAGAGA is lower in TetR repression strength: 0.134 for the first, 0.116 for the second.

First: TCCCTGTGAGTGAGTGAGA
Second: TCCCATAGAGTCCTTGAGA
The TetR repression strength of the first is lower: 0.242 for the first, 0.333 for the second.

Compared with TCCCTTTGAGTCCTTGAGA, TCCCGGTTAGTCAAAGAGA is higher in TetR repression strength: 0.22 for the first, 0.316 for the second.

First: TCCCAGGGAGTTCCCGAGA
Second: TCCCTGGGAGTACGCGAGA
The TetR repression strength of the first is higher: 0.272 for the first, 0.116 for the second.

Going from TCCCGTTAAGTCAAGGAGA to TCCCGCAGAGTTAGCGAGA, the TetR repression strength falls from 0.383 to 0.168.
